{"source": "the supplement of paper PMC8728848", "binders": {"B1": {"name": "Als3-2 (Candida albicans) (protein)", "chain": "KTITGVFNSFNSLTWSNAATYNYKGPGTPTWNAVLGWSLDGTSASPGDTFTLNMPCVFKFTTSQTSVDLTAHGVKYATCQFQAGEEFMTFSTLTCTVSNTLTPSIKALGTVTLPLAFNVGGTGSSVDLEDSKCFTAGTNTVTFNDGGKKISINVDFERSNVDPKGYLTD"}}, "assay_in_all_cases": "glycan array binding signal (z-score within array); higher = stronger binding", "conditions_in_all_cases": "glycan notation: IUPAC condensed, linker removed", "key": {"[1]": {"biological_target": "Neu5Ac(a2-3)GalNAc(b1-4)GlcNAc", "method_in_brief": "(§1)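 Columns mapping to the same glycan were averaged after glycan names were converted to IUPAC-condensed notation. The data come from 3228 arrays in the Consortium for Functional Glycomics database, limited to those with an available protein sequence. Binding is reported as a within-array Z-score averaged across arrays of one protein sequence and across linkers.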"}, "[2]": {"biological_target": "Neu5Ac(a2-3)[GalNAc(b1-4)]Gal(b1-4)Glc", "method_in_brief": "as §1"}, "[3]": {"biological_target": "Neu5Ac(a2-3)[GalNAc(b1-4)]Gal(b1-4)GlcNAc", "method_in_brief": "as §1"}, "[4]": {"biological_target": "Neu5Ac(a2-3)[GalNAc(b1-4)]Gal(b1-4)GlcNAc(b1-3)GalNAc", "method_in_brief": "as §1"}, "[5]": {"biological_target": "Neu5Ac(a2-3)[Neu5Ac(a2-6)]GalNAc", "method_in_brief": "as §1"}, "Neu5Ac(a2-6)Gal": {"biological_target": "Neu5Ac(a2-6)Gal", "method_in_brief": "as §1"}, "[6]": {"biological_target": "Neu5Ac(a2-6)Gal(b1-3)GlcNAc(b1-3)[Gal(b1-4)GlcNAc(b1-6)]Gal(b1-4)Glc", "method_in_brief": "as §1"}, "Neu5Ac(a2-6)Gal(b1-4)Glc": {"biological_target": "Neu5Ac(a2-6)Gal(b1-4)Glc", "method_in_brief": "as §1"}, "[7]": {"biological_target": "Neu5Ac(a2-6)Gal(b1-4)GlcNAc", "method_in_brief": "as §1"}, "[8]": {"biological_target": "Neu5Ac(a2-6)Gal(b1-4)GlcNAc(b1-2)Man", "method_in_brief": "as §1"}, "[9]": {"biological_target": "Neu5Ac(a2-6)Gal(b1-4)GlcNAc(b1-2)Man(a1-3)Man(b1-4)GlcNAc(b1-4)GlcNAc", "method_in_brief": "as §1"}, "[10]": {"biological_target": "Neu5Ac(a2-6)Gal(b1-4)GlcNAc(b1-2)Man(a1-3)[Gal(b1-4)GlcNAc(b1-2)Man(a1-6)]Man(b1-4)GlcNAc(b1-4)GlcNAc", "method_in_brief": "as §1"}, "[11]": {"biological_target": "Neu5Ac(a2-6)Gal(b1-4)GlcNAc(b1-2)Man(a1-3)[GlcNAc(b1-2)Man(a1-6)]Man(b1-4)GlcNAc(b1-4)GlcNAc", "method_in_brief": "as §1"}, "[12]": {"biological_target": "Neu5Ac(a2-6)Gal(b1-4)GlcNAc(b1-2)Man(a1-3)[GlcNAc(b1-4)][Neu5Ac(a2-6)Gal(b1-4)GlcNAc(b1-2)Man(a1-6)]Man(b1-4)GlcNAc(b1-4)GlcNAc", "method_in_brief": "as §1"}, "[13]": {"biological_target": "Neu5Ac(a2-6)Gal(b1-4)GlcNAc(b1-2)Man(a1-3)[Man(a1-6)]Man(b1-4)GlcNAc(b1-4)GlcNAc", "method_in_brief": "as §1"}, "[14]": {"biological_target": "Neu5Ac(a2-6)Gal(b1-4)GlcNAc(b1-2)Man(a1-3)[Neu5Ac(a2-3)Gal(b1-4)GlcNAc(b1-2)Man(a1-6)]Man(b1-4)GlcNAc(b1-4)GlcNAc", "method_in_brief": "as §1"}, "[15]": {"biological_target": "Neu5Ac(a2-6)Gal(b1-4)GlcNAc(b1-2)Man(a1-3)[Neu5Ac(a2-6)Gal(b1-4)GlcNAc(b1-2)Man(a1-6)]Man(b1-4)GlcNAc(b1-4)GlcNAc", "method_in_brief": "as §1"}, "[16]": {"biological_target": "Neu5Ac(a2-6)Gal(b1-4)GlcNAc(b1-2)Man(a1-3)[Neu5Ac(a2-6)Gal(b1-4)GlcNAc(b1-2)Man(a1-6)]Man(b1-4)GlcNAc(b1-4)[Fuc(a1-6)]GlcNAc", "method_in_brief": "as §1"}, "[17]": {"biological_target": "Neu5Ac(a2-6)Gal(b1-4)GlcNAc(b1-2)Man(a1-6)Man(b1-4)GlcNAc(b1-4)GlcNAc", "method_in_brief": "as §1"}, "[18]": {"biological_target": "Neu5Ac(a2-6)Gal(b1-4)GlcNAc(b1-2)Man(a1-6)[Gal(b1-4)GlcNAc(b1-2)Man(a1-3)]Man(b1-4)GlcNAc(b1-4)GlcNAc", "method_in_brief": "as §1"}, "[19]": {"biological_target": "Neu5Ac(a2-6)Gal(b1-4)GlcNAc(b1-2)Man(a1-6)[GlcNAc(b1-2)Man(a1-3)]Man(b1-4)GlcNAc(b1-4)GlcNAc", "method_in_brief": "as §1"}, "[20]": {"biological_target": "Neu5Ac(a2-6)Gal(b1-4)GlcNAc(b1-2)Man(a1-6)[Man(a1-3)]Man(b1-4)GlcNAc(b1-4)GlcNAc", "method_in_brief": "as §1"}, "[21]": {"biological_target": "Neu5Ac(a2-6)Gal(b1-4)GlcNAc(b1-2)[Neu5Ac(a2-6)Gal(b1-4)GlcNAc(b1-4)]Man(a1-3)[GlcNAc(b1-4)][Neu5Ac(a2-6)Gal(b1-4)GlcNAc(b1-2)[Neu5Ac(a2-6)Gal(b1-4)GlcNAc(b1-6)]Man(a1-6)]Man(b1-4)GlcNAc(b1-4)GlcNAc", "method_in_brief": "as §1"}, "[22]": {"biological_target": "Neu5Ac(a2-6)Gal(b1-4)GlcNAc(b1-2)[Neu5Ac(a2-6)Gal(b1-4)GlcNAc(b1-4)]Man(a1-3)[GlcNAc(b1-4)][Neu5Ac(a2-6)Gal(b1-4)GlcNAc(b1-4)Man(a1-6)]Man(b1-4)GlcNAc(b1-4)GlcNAc", "method_in_brief": "as §1"}, "[23]": {"biological_target": "Neu5Ac(a2-6)Gal(b1-4)GlcNAc(b1-2)[Neu5Ac(a2-6)Gal(b1-4)GlcNAc(b1-6)]Man(a1-6)[Neu5Ac(a2-6)Gal(b1-4)GlcNAc(b1-2)Man(a1-3)][GlcNAc(b1-4)]Man(b1-4)GlcNAc(b1-4)GlcNAc", "method_in_brief": "as §1"}, "[24]": {"biological_target": "Neu5Ac(a2-6)Gal(b1-4)GlcNAc(b1-3)Gal(b1-3)GlcNAc", "method_in_brief": "as §1"}, "[25]": {"biological_target": "Neu5Ac(a2-6)Gal(b1-4)GlcNAc(b1-3)Gal(b1-4)GlcNAc", "method_in_brief": "as §1"}, "[26]": {"biological_target": "Neu5Ac(a2-6)Gal(b1-4)GlcNAc(b1-3)Gal(b1-4)GlcNAc(b1-2)Man(a1-3)[Neu5Ac(a2-6)Gal(b1-4)GlcNAc(b1-3)Gal(b1-4)GlcNAc(b1-2)Man(a1-6)]GalNAc", "method_in_brief": "as §1"}, "[27]": {"biological_target": "Neu5Ac(a2-6)Gal(b1-4)GlcNAc(b1-3)Gal(b1-4)GlcNAc(b1-3)Gal(b1-4)GlcNAc", "method_in_brief": "as §1"}, "[28]": {"biological_target": "Neu5Ac(a2-6)Gal(b1-4)GlcNAc(b1-3)Gal(b1-4)GlcNAc(b1-3)Gal(b1-4)GlcNAc(b1-2)Man(a1-3)[Neu5Ac(a2-6)Gal(b1-4)GlcNAc(b1-3)Gal(b1-4)GlcNAc(b1-3)Gal(b1-4)GlcNAc(b1-2)Man(a1-6)]GalNAc", "method_in_brief": "as §1"}, "[29]": {"biological_target": "Neu5Ac(a2-6)Gal(b1-4)GlcNAc(b1-3)Gal(b1-4)GlcNAc(b1-3)GalNAc", "method_in_brief": "as §1"}, "[30]": {"biological_target": "Neu5Ac(a2-6)Gal(b1-4)GlcNAc(b1-3)Gal(b1-4)GlcNAc(b1-3)[Neu5Ac(a2-6)Gal(b1-4)GlcNAc(b1-3)Gal(b1-4)GlcNAc(b1-6)]GalNAc", "method_in_brief": "as §1"}, "[31]": {"biological_target": "Neu5Ac(a2-6)Gal(b1-4)GlcNAc(b1-3)Gal(b1-4)GlcNAc(b1-6)[Gal(b1-3)]GalNAc", "method_in_brief": "as §1"}, "[32]": {"biological_target": "Neu5Ac(a2-6)Gal(b1-4)GlcNAc(b1-3)Gal(b1-4)[Fuc(a1-3)]GlcNAc(b1-3)Gal(b1-4)[Fuc(a1-3)]GlcNAc", "method_in_brief": "as §1"}, "[33]": {"biological_target": "Neu5Ac(a2-6)Gal(b1-4)GlcNAc(b1-3)GalNAc", "method_in_brief": "as §1"}, "[34]": {"biological_target": "Neu5Ac(a2-6)Gal(b1-4)GlcNAc(b1-3)[Neu5Ac(a2-6)Gal(b1-4)GlcNAc(b1-6)]GalNAc", "method_in_brief": "as §1"}, "[35]": {"biological_target": "Neu5Ac(a2-6)Gal(b1-4)GlcNAc(b1-6)GalNAc", "method_in_brief": "as §1"}, "[36]": {"biological_target": "Neu5Ac(a2-6)Gal(b1-4)GlcNAc(b1-6)[Gal(b1-3)GlcNAc(b1-3)]Gal(b1-4)Glc", "method_in_brief": "as §1"}}, "note": "The other results are listed elsewhere or left out."}
{"binder": "B1", "values": [{"measurement": "glycan array binding signal (z-score)", "setting": "[1]", "value": -0.015}, {"measurement": "glycan array binding signal (z-score)", "setting": "[2]", "value": -0.544}, {"measurement": "glycan array binding signal (z-score)", "setting": "[3]", "value": -0.449}, {"measurement": "glycan array binding signal (z-score)", "setting": "[4]", "value": 0.064}, {"measurement": "glycan array binding signal (z-score)", "setting": "[5]", "value": 0.199}, {"measurement": "glycan array binding signal (z-score)", "setting": "Neu5Ac(a2-6)Gal", "value": -0.515}, {"measurement": "glycan array binding signal (z-score)", "setting": "[6]", "value": -0.621}, {"measurement": "glycan array binding signal (z-score)", "setting": "Neu5Ac(a2-6)Gal(b1-4)Glc", "value": -0.183}, {"measurement": "glycan array binding signal (z-score)", "setting": "[7]", "value": -0.203}, {"measurement": "glycan array binding signal (z-score)", "setting": "[8]", "value": -0.524}, {"measurement": "glycan array binding signal (z-score)", "setting": "[9]", "value": 2.13}, {"measurement": "glycan array binding signal (z-score)", "setting": "[10]", "value": -0.151}, {"measurement": "glycan array binding signal (z-score)", "setting": "[11]", "value": -0.56}, {"measurement": "glycan array binding signal (z-score)", "setting": "[12]", "value": -0.604}, {"measurement": "glycan array binding signal (z-score)", "setting": "[13]", "value": 0.677}, {"measurement": "glycan array binding signal (z-score)", "setting": "[14]", "value": -0.568}, {"measurement": "glycan array binding signal (z-score)", "setting": "[15]", "value": -0.001}, {"measurement": "glycan array binding signal (z-score)", "setting": "[16]", "value": 0.573}, {"measurement": "glycan array binding signal (z-score)", "setting": "[17]", "value": -0.553}, {"measurement": "glycan array binding signal (z-score)", "setting": "[18]", "value": -0.552}, {"measurement": "glycan array binding signal (z-score)", "setting": "[19]", "value": -0.515}, {"measurement": "glycan array binding signal (z-score)", "setting": "[20]", "value": -0.497}, {"measurement": "glycan array binding signal (z-score)", "setting": "[21]", "value": 1.21}, {"measurement": "glycan array binding signal (z-score)", "setting": "[22]", "value": 2.02}, {"measurement": "glycan array binding signal (z-score)", "setting": "[23]", "value": -0.431}, {"measurement": "glycan array binding signal (z-score)", "setting": "[24]", "value": -0.499}, {"measurement": "glycan array binding signal (z-score)", "setting": "[25]", "value": -0.315}, {"measurement": "glycan array binding signal (z-score)", "setting": "[26]", "value": 2.28}, {"measurement": "glycan array binding signal (z-score)", "setting": "[27]", "value": 0.378}, {"measurement": "glycan array binding signal (z-score)", "setting": "[28]", "value": 1.63}, {"measurement": "glycan array binding signal (z-score)", "setting": "[29]", "value": 1.59}, {"measurement": "glycan array binding signal (z-score)", "setting": "[30]", "value": 1.54}, {"measurement": "glycan array binding signal (z-score)", "setting": "[31]", "value": -0.255}, {"measurement": "glycan array binding signal (z-score)", "setting": "[32]", "value": -0.584}, {"measurement": "glycan array binding signal (z-score)", "setting": "[33]", "value": -0.511}, {"measurement": "glycan array binding signal (z-score)", "setting": "[34]", "value": -0.353}, {"measurement": "glycan array binding signal (z-score)", "setting": "[35]", "value": 0.527}, {"measurement": "glycan array binding signal (z-score)", "setting": "[36]", "value": 0.624}]}
